Data on one molecule can be found in patent US20190167593A1, “C[…] PHARMACEUTICALLY ACCEPTABLE SALT THEREOF, AND APPLICATION OF SAME” (priority 2016, published 2019).

The test system of this assay is influenza virus PR8. The format is in vivo. The following applies: i.m. 150 mg/kg once and 75 mg/kg x5 groups.

In the case of `CCCCS(=O)(=O)N[C@@H]1CCCN([C@@H]2C=C(C(=O)O)C[C@H](NC(=N)N)[C@H]2NC(C)=O)C1` [(3R,4R,5S)-4-acetamido-5-guanidino-3-((3R)-3-n-butylsulfonamidopiperidin)-1-cyclohexene-1-carboxylic acid], the disease symptoms entry was “Neither the mice in the treated group administering compound to be tested (#32) once in a dosage of 150 mg/kg and the treated group administering compound to be tested (#32) 5 times in a dosage of 75 mg/kg appeared obvious disease symptoms”. Also, where the note is “within 10 days”, the deaths / survival result is on record as “None of the mice in the treated group died”.
